# Some of the results follow.
# B1: PLU (Photorhabdus luminiscence) (protein)
# chain: HHHHHHENLYFQSSIVFASIDPRSNPLQTSSQNYVDIPGLKLDVSKYSNSPCLTALITLNIPTPYASGNNFPGGNFAIVTDQGEQLAYGGFTYSSKIPENSGRMPFTLVARYSLASNVSTIKAQWSNIRGSTVHIDSYASISAVIQCNQLV
# Assays:
# Assay in all cases: glycan array binding signal (z-score within array); higher = stronger binding
# Conditions in all cases: glycan notation: IUPAC condensed, linker removed
# [1] = target: Gal(b1-4)GlcNAc(b1-2)Man(a1-6)[Man(a1-3)]Man(b1-4)GlcNAc(b1-4)GlcNAc
# In short: (§1)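 Glycan array binding is given as a within-array Z-score, which can be read as non-binding when negative. The arrays, 3228 of them, came from the Consortium for Functional Glycomics database and were retained only where the protein sequence was available. Z-scores were averaged across arrays of the same protein sequence at different concentrations or buffers and across linkers.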
# [2] = target: Gal(b1-4)GlcNAc(b1-2)[Gal(b1-4)GlcNAc(b1-4)]Man(a1-3)[Gal(b1-4)GlcNAc(b1-2)Man(a1-6)]Man(b1-4)GlcNAc(b1-4)GlcNAc
# In short: as §1
# [3] = target: Gal(b1-4)GlcNAc(b1-2)[Gal(b1-4)GlcNAc(b1-4)]Man(a1-3)[Gal(b1-4)GlcNAc(b1-2)[Gal(b1-4)GlcNAc(b1-6)]Man(a1-6)]Man(b1-4)GlcNAc(b1-4)GlcNAc
# In short: as §1
# [4] = target: Gal(b1-4)GlcNAc(b1-2)[Gal(b1-4)GlcNAc(b1-4)]Man(a1-3)[GlcNAc(b1-4)][Gal(b1-4)GlcNAc(b1-2)Man(a1-6)]Man(b1-4)GlcNAc(b1-4)GlcNAc
# In short: as §1
# [5] = target: Gal(b1-4)GlcNAc(b1-2)[Gal(b1-4)GlcNAc(b1-4)]Man(a1-3)[GlcNAc(b1-4)][Gal(b1-4)GlcNAc(b1-2)[Gal(b1-4)GlcNAc(b1-6)]Man(a1-6)]Man(b1-4)GlcNAc(b1-4)GlcNAc
# In short: as §1
# [6] = target: Gal(b1-4)GlcNAc(b1-2)[Gal(b1-4)GlcNAc(b1-6)]Man(a1-6)[Gal(b1-4)GlcNAc(b1-2)Man(a1-3)]Man(b1-4)GlcNAc(b1-4)GlcNAc
# In short: as §1
# [7] = target: Gal(b1-4)GlcNAc(b1-2)[Gal(b1-4)GlcNAc(b1-6)]Man(a1-6)[Gal(b1-4)GlcNAc(b1-2)Man(a1-3)]Man(b1-4)GlcNAc(b1-4)[Fuc(a1-6)]GlcNAc
# In short: as §1
# [8] = target: Gal(b1-4)GlcNAc(b1-2)[Gal(b1-4)GlcNAc(b1-6)]Man(a1-6)[GlcNAc(b1-4)][Gal(b1-4)GlcNAc(b1-2)Man(a1-3)]Man(b1-4)GlcNAc(b1-4)GlcNAc
# In short: as §1
# [9] = target: Gal(b1-4)GlcNAc(b1-2)[Gal(b1-4)GlcNAc(b1-6)]Man(a1-6)[GlcNAc(b1-4)][Gal(b1-4)GlcNAc(b1-2)[Gal(b1-4)GlcNAc(b1-4)]Man(a1-3)]Man(b1-4)GlcNAc(b1-4)[Fuc(a1-6)]GlcNAc
# In short: as §1
# [10] = target: Gal(b1-4)GlcNAc(b1-3)Gal(b1-3)GalNAc
# In short: as §1
# [11] = target: Gal(b1-4)GlcNAc(b1-3)Gal(b1-3)GlcNAc
# In short: as §1
# [12] = target: Gal(b1-4)GlcNAc(b1-3)Gal(b1-4)Glc
# In short: as §1
# [13] = target: Gal(b1-4)GlcNAc(b1-3)Gal(b1-4)GlcNAc
# In short: as §1
# [14] = target: Gal(b1-4)GlcNAc(b1-3)Gal(b1-4)GlcNAc(b1-2)Man(a1-3)[Gal(b1-4)GlcNAc(b1-3)Gal(b1-4)GlcNAc(b1-2)Man(a1-6)]Man(b1-4)GlcNAc(b1-4)GlcNAc
# In short: as §1
# [15] = target: Gal(b1-4)GlcNAc(b1-3)Gal(b1-4)GlcNAc(b1-2)Man(a1-3)[Gal(b1-4)GlcNAc(b1-3)Gal(b1-4)GlcNAc(b1-2)Man(a1-6)]Man(b1-4)GlcNAc(b1-4)[Fuc(a1-6)]GlcNAc
# In short: as §1
# [16] = target: Gal(b1-4)GlcNAc(b1-3)Gal(b1-4)GlcNAc(b1-2)[Gal(b1-4)GlcNAc(b1-3)Gal(b1-4)GlcNAc(b1-6)]Man(a1-6)[Gal(b1-4)GlcNAc(b1-3)Gal(b1-4)GlcNAc(b1-2)Man(a1-3)]Man(b1-4)GlcNAc(b1-4)GlcNAc
# In short: as §1
# [17] = target: Gal(b1-4)GlcNAc(b1-3)Gal(b1-4)GlcNAc(b1-2)[Gal(b1-4)GlcNAc(b1-3)Gal(b1-4)GlcNAc(b1-6)]Man(a1-6)[Gal(b1-4)GlcNAc(b1-3)Gal(b1-4)GlcNAc(b1-2)Man(a1-3)]Man(b1-4)GlcNAc(b1-4)[Fuc(a1-6)]GlcNAc
# In short: as §1
# [18] = target: Gal(b1-4)GlcNAc(b1-3)Gal(b1-4)GlcNAc(b1-3)Gal(b1-4)GlcNAc
# In short: as §1
# [19] = target: Gal(b1-4)GlcNAc(b1-3)Gal(b1-4)GlcNAc(b1-3)Gal(b1-4)GlcNAc(b1-2)Man(a1-3)[Gal(b1-4)GlcNAc(b1-3)Gal(b1-4)GlcNAc(b1-3)Gal(b1-4)GlcNAc(b1-2)Man(a1-6)]Man(b1-4)GlcNAc(b1-4)GlcNAc
# In short: as §1
# [20] = target: Gal(b1-4)GlcNAc(b1-3)Gal(b1-4)GlcNAc(b1-3)Gal(b1-4)GlcNAc(b1-2)Man(a1-3)[Gal(b1-4)GlcNAc(b1-3)Gal(b1-4)GlcNAc(b1-3)Gal(b1-4)GlcNAc(b1-2)Man(a1-6)]Man(b1-4)GlcNAc(b1-4)[Fuc(a1-6)]GlcNAc
# In short: as §1
# [21] = target: Gal(b1-4)GlcNAc(b1-3)Gal(b1-4)GlcNAc(b1-3)Gal(b1-4)GlcNAc(b1-2)[Gal(b1-4)GlcNAc(b1-3)Gal(b1-4)GlcNAc(b1-3)Gal(b1-4)GlcNAc(b1-6)]Man(a1-6)[Gal(b1-4)GlcNAc(b1-3)Gal(b1-4)GlcNAc(b1-3)Gal(b1-4)GlcNAc(b1-2)Man(a1-3)]Man(b1-4)GlcNAc(b1-4)[Fuc(a1-6)]GlcNAc
# In short: as §1
# [22] = target: Gal(b1-4)GlcNAc(b1-3)Gal(b1-4)GlcNAc(b1-3)Gal(b1-4)GlcNAc(b1-3)Gal(b1-4)GlcNAc(b1-2)Man(a1-3)[Gal(b1-4)GlcNAc(b1-3)Gal(b1-4)GlcNAc(b1-3)Gal(b1-4)GlcNAc(b1-3)Gal(b1-4)GlcNAc(b1-2)Man(a1-6)]Man(b1-4)GlcNAc(b1-4)GlcNAc
# In short: as §1
binder,measurement,setting,value
B1,glycan array binding signal (z-score),[1],-0.259
same,glycan array binding signal (z-score),[2],-0.291
same,glycan array binding signal (z-score),[3],-0.318
same,glycan array binding signal (z-score),[4],-0.305
same,glycan array binding signal (z-score),[5],-0.298
same,glycan array binding signal (z-score),[6],-0.278
same,glycan array binding signal (z-score),[7],-0.162
same,glycan array binding signal (z-score),[8],-0.222
same,glycan array binding signal (z-score),[9],-0.282
same,glycan array binding signal (z-score),[10],-0.433
same,glycan array binding signal (z-score),[11],-0.332
same,glycan array binding signal (z-score),[12],-0.238
same,glycan array binding signal (z-score),[13],-0.271
same,glycan array binding signal (z-score),[14],-0.21
same,glycan array binding signal (z-score),[15],-0.131
same,glycan array binding signal (z-score),[16],-0.215
same,glycan array binding signal (z-score),[17],-0.219
same,glycan array binding signal (z-score),[18],-0.275
same,glycan array binding signal (z-score),[19],-0.23
same,glycan array binding signal (z-score),[20],-0.256
same,glycan array binding signal (z-score),[21],-0.211
same,glycan array binding signal (z-score),[22],-0.179
